Test results taken from PubChem BioAssay AID720708 (National Center for Advancing Translational Sciences (NCATS), 2013).
In all, about 360,000 compounds went through this assay and about 660 (0.18%) were called active. This list was built around the results that the source calls inconclusive (neither active nor inactive); the mix of calls is not that of the screen. Calls come from the whole dose curve; as a rule, active = well fitted inhibition curve with a large enough effect; inconclusive = small, poorly fitted or top-dose-only effect; inactive = no such curve, though single readings can be large or run the other way. Potencies of inconclusive entries are left out as doubtful fits.

target: Rap guanine nucleotide exchange factor 4 (Homo sapiens) (UniProt Q8WZA2); experiment: qHTS for Antagonist of cAMP-regulated guanine nucleotide exchange factor 2 (EPAC2): primary screen; conditions: EPAC2 GEF exchange of Rap1B-BODIPY-GDP, fluorescence; activity, negative = inhibition: at 114 µM (top of the series) unless noted; note: nearly all actives have a fitted effect of over 45% in size
% is set by controls: 0 for no effect and ±100 for the full control effect; potency is the fitted concentration of half-maximal effect; tags give direction and shape of the fitted curve.

UniProt Q8WZA2, sequence (Q8WZA2 whole entry, looked up): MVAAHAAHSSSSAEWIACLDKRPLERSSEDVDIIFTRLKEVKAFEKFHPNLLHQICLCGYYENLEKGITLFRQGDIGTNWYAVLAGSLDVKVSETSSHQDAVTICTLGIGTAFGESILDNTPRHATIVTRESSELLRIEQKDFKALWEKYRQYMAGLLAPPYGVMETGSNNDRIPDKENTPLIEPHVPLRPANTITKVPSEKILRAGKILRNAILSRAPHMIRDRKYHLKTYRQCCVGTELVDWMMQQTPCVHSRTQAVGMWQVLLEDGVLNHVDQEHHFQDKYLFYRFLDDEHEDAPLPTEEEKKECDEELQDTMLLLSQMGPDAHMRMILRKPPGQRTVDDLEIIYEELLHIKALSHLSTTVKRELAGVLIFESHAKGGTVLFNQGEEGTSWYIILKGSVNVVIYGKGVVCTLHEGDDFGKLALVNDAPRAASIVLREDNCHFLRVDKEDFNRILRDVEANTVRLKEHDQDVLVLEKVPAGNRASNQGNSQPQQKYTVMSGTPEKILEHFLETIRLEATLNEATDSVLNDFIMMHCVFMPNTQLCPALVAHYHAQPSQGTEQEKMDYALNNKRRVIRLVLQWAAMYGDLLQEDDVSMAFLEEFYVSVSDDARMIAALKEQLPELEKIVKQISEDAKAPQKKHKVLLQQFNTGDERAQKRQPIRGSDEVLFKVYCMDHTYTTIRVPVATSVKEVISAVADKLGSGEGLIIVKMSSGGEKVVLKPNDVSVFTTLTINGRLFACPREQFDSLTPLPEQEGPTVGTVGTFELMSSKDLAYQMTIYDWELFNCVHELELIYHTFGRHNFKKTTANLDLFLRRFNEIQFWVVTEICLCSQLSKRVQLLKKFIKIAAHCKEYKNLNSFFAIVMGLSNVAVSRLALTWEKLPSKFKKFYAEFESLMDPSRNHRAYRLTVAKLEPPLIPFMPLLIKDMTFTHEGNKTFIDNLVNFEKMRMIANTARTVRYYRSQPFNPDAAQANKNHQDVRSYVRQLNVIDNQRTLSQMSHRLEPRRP

**Q.** For `CCOc1ccc(C(=O)c2nc3c(n2O)CCCC3)cc1`, which “activity, negative = inhibition” value is on record?
**A.** Its value is inactive: -14.9%.

**Q.** `O=C(Cc1csc(NC(=O)c2ccccc2)n1)NO` was tested. Which “activity, negative = inhibition” value did it give?
**A.** The value was inactive: 8.24%.

**Q.** With `O=C(Nc1cc(Cl)ccc1N1CCOCC1)c1ccc(N2CCCCC2)c([N+](=O)[O-])c1` as the compound, how does the Potency read?
**A.** The Potency was inconclusive [inhibitor, single point].

**Q.** How did the Potency turn out when `CC(C)(C)SCCNS(=O)(=O)c1ccc(Cl)cc1` was run?
**A.** The Potency was inconclusive [inhibitor, full curve].

**Q.** Which Potency does the source give for `N#Cc1c(C(F)(F)F)cc(-c2cccs2)nc1SC(C(=O)O)c1ccccc1` (stereo not drawn) here?
**A.** The Potency was inconclusive [inhibitor, partial curve].

**Q.** With `COc1ccc(S(=O)(=O)Nc2ccc3c(c2)C(=O)N([C@H](C)CO)C[C@H](C)[C@@H](CN(C)C(=O)Nc2ccc(C(F)(F)F)cc2)O3)cc1` as the compound, how does the Potency read?
**A.** The Potency was inconclusive [inhibitor, partial curve].

**Q.** With `OC(Cc1cccc(Br)c1)c1ncc(-c2ccccc2C(F)(F)F)[nH]1` (stereo not drawn) as the compound, how does the Potency read?
**A.** Its Potency is inconclusive [inhibitor, partial curve].

**Q.** How did the “activity, negative = inhibition” value turn out when `CCCC(=O)NC(c1ccc(Cl)cc1Cl)c1ccc2cccnc2c1O` (stereo not drawn) was run?
**A.** Its value is inactive: -13.1%.

**Q.** For `COc1ccc(NC(=O)CN2CCN(c3ccccc3)CC2)cc1`, which Potency is on record?
**A.** Its Potency is inconclusive [inhibitor, single point].

**Q.** `CC1c2ccsc2CCN1S(=O)(=O)c1ccccc1` (stereo not drawn) was tested. Which Potency did it give?
**A.** The Potency was inconclusive [inhibitor, single point].

**Q.** How did the Potency turn out when `O=c1[nH]c(/C=C/c2cccc([N+](=O)[O-])c2)c([N+](=O)[O-])c(=O)[nH]1` was run?
**A.** The Potency was inconclusive [inhibitor, partial curve].

**Q.** With `O=C(CSc1n[nH]c(-c2ccncc2)n1)Nc1ccc(Cl)cc1` as the compound, how does the activity, negative = inhibition read?
**A.** The activity, negative = inhibition was inconclusive: -30.8% [inhibitor].

**Q.** `CC(C)(C)C(=O)NC(=S)NCc1ccccc1` was tested. Which “activity, negative = inhibition” value did it give?
**A.** Its value is inactive: -3.45%.

**Q.** For `Cc1ccc(N=C2CCCN2Cc2ccccc2)c(C#N)c1`, which Potency is on record?
**A.** The Potency was inconclusive [inhibitor, partial curve].

**Q.** For `Cc1cccc(C)c1OC(=O)c1ccccc1`, which Potency is on record?
**A.** Its Potency is active: 50.1 µM.

**Q.** For `CCc1cccc(NC(=O)CN(C)S(=O)(=O)c2cnc[nH]2)c1`, which Potency is on record?
**A.** The Potency was inconclusive [inhibitor, single point].

**Q.** For `CCN(CC)c1nc(N2CCOCC2)c(C#N)c2c1CN(C)CC2`, which “activity, negative = inhibition” value is on record?
**A.** The value was inactive: 4.87%.

**Q.** For `COc1ccc(C)cc1-n1nc2ccccc2n1`, which Potency is on record?
**A.** Its Potency is inconclusive [inhibitor, partial curve].

**Q.** `Cc1ccc(CNC(=O)COc2ccccc2-c2ccccc2)cc1` was tested. Which Potency did it give?
**A.** The Potency was inconclusive [inhibitor, partial curve].

**Q.** Which “activity, negative = inhibition” value does the source give for `Cc1[nH]c2ccc(Br)cc2c(=O)c1CN1CCCCCC1` here?
**A.** Its value is inactive: -7.76%.

**Q.** For `CCOC(=O)Cc1cc(=O)n2[nH]cc(-c3cccc(Br)c3)c2n1`, which Potency is on record?
**A.** Its Potency is inconclusive [inhibitor, partial curve].

**Q.** How did the Potency turn out when `COC(=O)C1=C/CCCN(C(c2ccccc2)c2ccccc2)/C=C\1C(=O)OC` was run?
**A.** The Potency was inconclusive [inhibitor, full curve].

**Q.** For `COc1cc(N(C)C)ccc1C=c1c2ccccc2n2c1cc(-c1ccccc1)[n+]2C`, which “activity, negative = inhibition” value is on record?
**A.** Its value is inactive: -26.1%.

**Q.** With `O=C1CS(=O)(=O)N(Cc2cccc(F)c2)c2ccc(Br)cc21` as the compound, how does the “activity, negative = inhibition” value read?
**A.** The value was inactive: -20.7%.

**Q.** With `CC1CCc2c(sc(/N=C/N(C)C)c2C#N)C1` (stereo not drawn) as the compound, how does the Potency read?
**A.** Its Potency is inconclusive [inhibitor, partial curve].

**Q.** `CC1(c2ccc(F)cc2)OC(=O)c2c1ccc1ccccc21` (stereo not drawn) was tested. Which Potency did it give?
**A.** Its Potency is inconclusive [inhibitor, full curve].

**Q.** With `COc1ccc2c(c1)C(SCC(=O)NCCc1ccccc1)CC(C)(C)O2` (stereo not drawn) as the compound, how does the Potency read?
**A.** The Potency was inconclusive [inhibitor, partial curve].

**Q.** Which “activity, negative = inhibition” value does the source give for `O=C(NCc1ccccc1)C1Cc2c(-c3ccc(Cl)cc3)ccnc2O1` (stereo not drawn) here?
**A.** Its value is inactive: 2.91%.

**Q.** With `CCCS(=O)(=O)NC(=O)C1(C)CCN(C(=O)c2ccnc(Cl)c2)C1` (stereo not drawn) as the compound, how does the Potency read?
**A.** Its Potency is inconclusive [inhibitor, single point].

**Q.** For `COc1ccc([C@H](NC(=O)OC(C)(C)C)C(=O)OC(C)(C)C)cc1`, which Potency is on record?
**A.** The Potency was inconclusive [inhibitor, single point].

**Q.** `CCOC(=O)c1c(C)[nH]c(C)c1C(=O)CSc1nc2ccccc2c(=O)n1-c1ccccc1C` was tested. Which Potency did it give?
**A.** Its Potency is inconclusive [inhibitor, full curve, poor fit].

**Q.** For `COc1ccc(N=Cc2c(O)n(-c3cccc(C)n3)c(=O)c3ccccc23)c(OC)c1`, which “activity, negative = inhibition” value is on record?
**A.** The value was inactive: 119%.

**Q.** With `COc1ccccc1Nc1nc(Cl)nc(NC(C)(C)C)n1` as the compound, how does the “activity, negative = inhibition” value read?
**A.** Its value is inactive: -13.4%.

**Q.** `O=S(=O)(Nc1ccccc1C(F)(F)F)c1ccc(-c2ccccn2)s1` was tested. Which Potency did it give?
**A.** Its Potency is inconclusive [inhibitor, partial curve, poor fit].

**Q.** Which “activity, negative = inhibition” value does the source give for `Cc1nc(N)c(C#N)c(-c2ccccc2)c1C` here?
**A.** The value was inactive: 1.4%.

**Q.** `CCCNC(=O)c1ccc2c(=O)c(O)c(-c3ccc(C)cc3)[nH]c2c1` was tested. Which “activity, negative = inhibition” value did it give?
**A.** Its value is inactive: -23.1%.

**Q.** For `Cc1cc2nc3c(=O)[nH]c(=S)[nH]c3nc2cc1NC(=O)C(F)(F)F`, which Potency is on record?
**A.** Its Potency is inconclusive [inhibitor, partial curve].

**Q.** For `O=C(CN1CCCCCC1)Nc1ccc(F)c(F)c1`, which “activity, negative = inhibition” value is on record?
**A.** Its value is inactive: 2.78%.

**Q.** With `COc1cc(Cl)c(C)cc1NC(=O)CSc1ccc(C)cc1` as the compound, how does the “activity, negative = inhibition” value read?
**A.** Its value is inactive: -2.33%.

**Q.** How did the “activity, negative = inhibition” value turn out when `CSc1nc(-c2ccco2)nn1C(=O)Cc1ccccc1` was run?
**A.** The value was inactive: 2.12%.

**Q.** For `Cc1c(CCC(=O)N2CCC[C@H]2C(=O)O)c(=O)oc2cc3oc4c(c3cc12)CCCC4`, which Potency is on record?
**A.** The Potency was inconclusive [inhibitor, full curve, poor fit].

**Q.** With `O/N=C/c1ccccc1OCc1ccccc1F` as the compound, how does the “activity, negative = inhibition” value read?
**A.** Its value is inactive: 7.57%.

**Q.** How did the Potency turn out when `CCOC(=O)c1c(C)nc2ccccc2c1-c1ccccc1` was run?
**A.** The Potency was inconclusive [inhibitor, single point].

**Q.** For `C=CCn1c(=O)/c(=C/c2cc(OC)c(OC)c(OC)c2)s/c1=C(/C#N)c1nc2ccccc2n1C`, which Potency is on record?
**A.** Its Potency is inconclusive [inhibitor, partial curve, poor fit].

**Q.** `Cn1cc(Cl)c(C(=O)Nc2nc3ccccc3s2)n1` was tested. Which “activity, negative = inhibition” value did it give?
**A.** Its value is inactive: -1.06%.

**Q.** `CN(CC(=O)Nc1ccc(F)cc1)C(=O)COC(=O)C1CCN(c2ccc(C(F)(F)F)cn2)CC1` was tested. Which “activity, negative = inhibition” value did it give?
**A.** Its value is inactive: -17.1%.

**Q.** For `CN(CC(CC(=O)Nc1nncs1)c1ccccc1)S(=O)(=O)c1ccc(Br)cc1` (stereo not drawn), which Potency is on record?
**A.** The Potency was inconclusive [inhibitor, full curve].

**Q.** How did the “activity, negative = inhibition” value turn out when `COc1ccc(NC(=O)C(c2ccccc2F)n2c(=O)c(-c3cc4ccccc4[nH]3)nc3ccccc32)cc1` (stereo not drawn) was run?
**A.** The value was inactive: -14.9%.
